Test results: PubChem BioAssay AID588855 (National Center for Advancing Translational Sciences (NCATS), 2011)
“And” between values parts separate entries of the source, which are not always exact repeats. Identical values can stand only once. About 5,000 (1.2%) of roughly 410,000 compounds were called active. Inconclusive results, whose numbers are uncertain, are shown with a selection of clear calls. The call rests on the fitted dose curve; in most records, active means well fitted inhibition curve with a large enough effect; inconclusive means small, poorly fitted or top-dose-only effect; inactive means no such curve, though single readings can be large or run the other way. Where the call is inconclusive, the potency comes from a doubtful curve fit. Where a structure was tested more than once in an assay, its records may differ in their call.

assay: qHTS for Inhibitors of TGF-b; details: HepG2 CAGA-GFP TGF-b/SMAD3 reporter, GFP fluorescence, 18 h, TGF-beta stimulated, 500 pg/mL final; series mostly up to 46.1 µM; activity, negative = inhibition: at the top concentration; further: nearly all actives have a fitted effect of over 65% in size
In short: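 Inhibition of TGF-beta-driven CAGA-GFP reporter expression in HEPG2 cells is measured by cellular GFP fluorescence after 18 h stimulation with 500 pg/mL recombinant TGF-beta in 1% FBS medium at 37 degrees C.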
On the % scale 0 is the no-effect control and ±100 the full control effect; potency means the concentration at half of the fitted maximal effect; tags describe the fitted curve by direction and shape.

Compound | Potency | activity, negative = inhibition
COc1ccc(CN2CCN(Cc3cccc4nonc34)CC2CCO)c(C)c1C (stereo not given) | inconclusive: 25.1 µM [inhibitor, single point] | 
COc1ccc(C(C)=O)cc1COC(=O)CNC(=O)c1ccc(Cl)cc1 | inconclusive: 10 µM [inhibitor, partial curve] | 
CCOC(=O)/C(C#N)=C\C1=C(N2CCCC2)CC(C)(CC)OC1 (stereo not given) | inconclusive: 35.5 µM [inhibitor, single point] | 
COc1ccc(Cl)cc1NC(=O)CSc1nc(=O)n(Cc2ccco2)c2c1CCC2 | inconclusive: 3.98 µM [inhibitor, full curve, poor fit] | 
COc1cc(/C=N/N=C(/N)c2nonc2N)cc(Br)c1OCc1cccc(C)c1 | inconclusive: 22.4 µM [inhibitor, single point] | 
O=C(Nc1cccc(-c2csc(Nc3ccc(Cl)cc3)n2)c1)c1cccc(C(F)(F)F)c1 | inconclusive: 35.5 µM [inhibitor, single point] | 
Cc1nn(Cc2ccc(Cl)cc2)c(C)c1NC(=O)/C=C/c1cnn(C)c1 |  | inactive: 0.801%
CC(C)(C)NC(=O)[C@@H]1C[C@@H]2CCCC[C@@H]2CN1C[C@@H](O)[C@H](Cc1ccccc1)NC(=O)[C@H](CC(N)=O)NC(=O)c1ccc2ccccc2n1 | inconclusive: 20 µM [inhibitor, single point] and inconclusive: 25.1 µM [inhibitor, single point] | 
Cc1cc(Cl)cc(C)c1OCCCCCn1ccnc1 | inconclusive: 35.5 µM [inhibitor, single point] | 
O=C(CN1CCN(S(=O)(=O)c2ccc3ccccc3c2)CC1)N1CCc2ccccc2C1 | inconclusive: 35.5 µM [inhibitor, single point] | 
Clc1ccc2nc(-c3cccc(Br)c3)c(Cc3ccccc3)n2c1 | inconclusive: 17.8 µM [inhibitor, single point] | 
COc1ccc(-c2cc(=O)n(CCC#N)[nH]2)cc1 |  | inactive: 1.27%
Cc1ccccc1NC(=O)N1c2ccccc2CC1C (stereo not given) |  | inactive: -23.7%
COc1ccc(OC)c(C2C(C(=O)Nc3ccc(C)cc3C)=C(C)Nc3c(C(=O)Nc4ccc(F)cc4)cnn32)c1 (stereo not given) | inconclusive: 7.08 µM [inhibitor, partial curve, poor fit] | 
COc1ccc(OC)c(NS(=O)(=O)c2ccc(NC(=O)c3ccc(NS(C)(=O)=O)cc3)cc2)c1 | inconclusive: 7.08 µM [inhibitor, partial curve, poor fit] | 
NC(=O)COC(=O)[C@H](Cc1ccccc1)NS(=O)(=O)c1ccc2c(c1)OCCO2 |  | inactive: -10.6%
CCOc1ccccc1CNC(=O)CSc1n[nH]c(-c2ccccc2)n1 | inconclusive: 0.316 µM [inhibitor, full curve, poor fit] | 
COc1ccc(/C=C/CN2CCC(CO)(Cc3ccccc3Cl)CC2)cc1 | inconclusive: 35.5 µM [inhibitor, single point] | 
COc1ccccc1CN1CC(C(=O)N(C)Cc2[nH]c3ccccc3c2C)CCC1=O (stereo not given) | inconclusive: 35.5 µM [inhibitor, single point] | 
CCCCNC(=S)N1CCn2cccc2C1c1ccc(F)cc1 (stereo not given) | inconclusive: 35.5 µM [inhibitor, single point] | 
COc1ccc2c(c1)c(C(O)CN1CCC(Cc3ccccc3)CC1)c(C)n2C (stereo not given) | inconclusive: 35.5 µM [inhibitor, single point] | 
O=C(NCCO)c1ccc(-c2ccc3nncn3c2)cc1 |  | inactive: -11.3%

Compound | Potency | activity, negative = inhibition
O=C(c1ccsc1)N1CCCC(N2CCN(c3ccccc3F)CC2)C1 (stereo not given) | inconclusive: 5.62 µM [inhibitor, single point] | 
Cc1cc(Nc2cccc(C(F)(F)F)c2)nc2ccc(NC(=O)Cc3ccc(Cl)cc3)cc12 | inconclusive: 15.8 µM [inhibitor, partial curve, poor fit] | 
Cc1cccc(C(=O)NCCc2nc3ccccc3n2Cc2ccccc2Cl)c1 | inconclusive: 22.4 µM [inhibitor, single point] | 
CCOc1ccc(Nc2nc3c(c(=O)[nH]2)CCCC3)cc1 |  | inactive: 1.25%
O=C(NCCCN1CCOCC1)c1ccc2c(c1)N(Cc1c(F)cccc1Cl)C(=O)c1ccccc1S2 | inconclusive: 22.4 µM [inhibitor, single point] | 
CCN(CC)S(=O)(=O)c1cc(C(=O)Oc2cccc(-c3cnc4ccccc4n3)c2)ccc1OC |  | inactive: -5.5%
O=C(CNc1ccc2ccccc2c1)N/N=C/c1ccccn1 |  | inactive: -8.82%
Fc1ccc(-c2noc3ncnc(NCCc4ccc(Cl)cc4)c23)cc1 |  | inactive: 16%
COc1cccc(C(=O)Nc2cc(NC(=O)c3cccs3)ccc2C)c1OC | inconclusive: 8.91 µM [inhibitor, single point] | 
C[C@@H]1CCC(=O)N(CC[C@H](Sc2ccccc2)c2ccccc2)CC1 | active: 17.8 µM | 
CC(C)c1ccc2c(c1)NC(c1ccc(F)cc1)=NC(c1cccs1)=N2 | inconclusive: 25.1 µM [inhibitor, single point] | 
O=C(CCc1nc2ccccc2c(=O)[nH]1)OCc1cccc(C(F)(F)F)c1 | inconclusive: 11.2 µM [inhibitor, single point] | 
CC(C)COc1ccc(/C(=N/O)c2ccccc2)cc1 | inconclusive: 35.5 µM [inhibitor, single point] | 
CC(=O)c1ccc(S(=O)(=O)N(C)CC(=O)N2CCCCCC2)cc1 |  | inactive: -0.338%
Cc1noc(C)c1S(=O)(=O)N(C)C[C@H]1Oc2c(NC(=O)Nc3ccc(C(F)(F)F)cc3)cccc2C(=O)N([C@H](C)CO)C[C@@H]1C | inconclusive: 17.8 µM [inhibitor, single point] | 
Cc1cnc(CN(C)Cc2c(C(=O)N3CCc4ccccc4C3)nc3ccc(Cl)cn23)[nH]1 |  | inactive: 11.3%
COc1ccc(C(=O)NCCn2cc(SCC(=O)Nc3ccc4c(c3)OCCO4)c3ccccc32)cc1 | inconclusive: 28.2 µM [inhibitor, single point] | 
Cc1[nH]c2ccccc2c1C1(O)C(=O)N(Cc2ccc3c(c2)OCO3)c2ccccc21 (stereo not given) | inconclusive: 28.2 µM [inhibitor, partial curve, poor fit] | 
O=C(Nc1nc2ccccc2[nH]1)c1cccc([N+](=O)[O-])c1 |  | inactive: -1.45%
O=C(Nc1ccc(Cl)c([N+](=O)[O-])c1)C(NCCCO)c1ccccc1 (stereo not given) | inconclusive: 35.5 µM [inhibitor, single point] | 
C=C1C(=O)OCC2C(C(=O)O)=CC3C(C)C(C)=CC123 (stereo not given) | inconclusive: 35.5 µM [inhibitor, single point] | 
O=C(NC1CC1)C1=C[C@@H](c2ccc3c(c2)OCO3)C[C@@H](OCc2ccc(CO)cc2)O1 | inconclusive: 0.1 µM [inhibitor, full curve, poor fit] | 

Compound | Potency | activity, negative = inhibition
CC(C)c1nc(SCC(=O)Nc2cccc3ccccc23)n[nH]1 |  | inactive: 12.6%
Cc1ccc(-c2cc(C(=O)N3CCOCC3)c3cc(C)ccc3n2)cc1 | inconclusive: 0.282 µM [inhibitor, full curve, poor fit] | 
Cc1ccc(-c2csc(N=C(N)N)n2)c(C)c1 | inconclusive: 35.5 µM [inhibitor, single point] | 
NS(=O)(=O)c1ccc(N=Nc2c(=O)[nH]n3c(=O)c4c([nH]c23)CCCC4)cc1 |  | inactive: 8.66%
COC(=O)c1ccc(NC(=O)c2c(NCc3cccc(F)c3)sc3c2CCCC3)cc1 | inconclusive: 35.5 µM [inhibitor, partial curve, poor fit] | 
COc1ccc(C(=O)NCC(=O)N/N=C/c2ccc([N+](=O)[O-])s2)cc1OC | active: 11.2 µM | 
COc1ccc(C2CC(c3ccc4ccccc4c3OC(C)=O)=NN2C(=O)/C=C/c2ccccc2)cc1 (stereo not given) | inconclusive: 35.5 µM [inhibitor, single point] | 
O=C(CSCc1ccc(Cl)cc1)Nc1ccc(-c2nnc(-c3ccccc3)o2)cc1 | inconclusive: 28.2 µM [inhibitor, single point] | 
Cc1cc(C)c(S(=O)(=O)NCc2ccc3c(c2)CCN3C(=O)c2ccccc2)c(C)c1 | inconclusive: 1.26 µM [inhibitor, partial curve, poor fit] | 
Cc1cc(Br)ccc1SCC(=O)NCC(c1ccco1)N1CCCCC1 (stereo not given) | inconclusive: 35.5 µM [inhibitor, partial curve, poor fit] | 
Cc1ccc(-c2nnc(-n3ncc(C#N)c3N)c3ccccc23)cc1C |  | inactive: -10%
COc1ccc(CCN2CC(C(=O)N(C)Cc3ccc4nsnc4c3)CCC2=O)cc1 (stereo not given) |  | inactive: -4.92%
CC(/C=C/c1ccc(N(C)C)cc1)=N/N=C1/NC(=O)CC(C(=O)Nc2ccc(Cl)cc2)S1 (stereo not given) | active: 10 µM | 
OC(CN1C2=NCCN2c2ccccc21)c1ccc2c(c1)OCO2 (stereo not given) | inconclusive: 35.5 µM [inhibitor, single point] | 
CC(=O)Nc1ccc(S(=O)(=O)NCCCc2ccccc2)cc1 |  | inactive: -17.8%
CCOc1ccc(Cl)cc1CNCCNCCO |  | inactive: -11.6%
CCOc1cc(N2CCOCC2)c(OCC)cc1NC(=O)c1nc2nc(C)cc(C)n2n1 | inconclusive: 5.62 µM [inhibitor, single point] | 
Cc1cccn2c(=O)c(C(=O)N3CCN(c4ccccc4F)CC3)cnc12 |  | inactive: 0.0947%
OC(CNCC1CCCO1)Cn1c2ccc(Br)cc2c2cc(Br)ccc21 (stereo not given) | inconclusive: 25.1 µM [inhibitor, single point] | 
Oc1cc2c(cc1CN1CCc3ccccc3C1)OCO2 | inconclusive: 15.8 µM [inhibitor, single point] | 
CCn1cc([N+](=O)[O-])c(C(=O)N2N=C(c3ccc(Cl)c(Cl)c3)CC2c2ccccc2O)n1 (stereo not given) | active: 11.2 µM | 
